From the supplement of paper PMC8728848
Some of the results follow.

Tests used:
Experiment in all cases: glycan array binding signal (z-score within array); higher = stronger binding
Settings in all cases: glycan notation: IUPAC condensed, linker removed
Fuc(a1-2)Gal = biological target: Fuc(a1-2)Gal
Outline: (§1)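 Glycan array data were curated from 3228 arrays in the Consortium for Functional Glycomics database and kept only where the protein sequence was available. Glycan names were converted to IUPAC-condensed notation, and columns mapping to the same glycan were averaged. The binding signal is a within-array Z-score, averaged across arrays of the same protein sequence at different concentrations or buffers and across linkers. Negative Z-scores can be read as non-binding.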

Fuc(a1-2)Gal(b1-3)GalNAc = biological target: Fuc(a1-2)Gal(b1-3)GalNAc
Outline: as §1

[1] = biological target: Fuc(a1-2)Gal(b1-3)GalNAc(b1-3)Gal
Outline: as §1

[2] = biological target: Fuc(a1-2)Gal(b1-3)GalNAc(b1-3)Gal(a1-4)Gal(b1-4)Glc
Outline: as §1

[3] = biological target: Fuc(a1-2)Gal(b1-3)GalNAc(b1-3)Gal(b1-4)Glc
Outline: as §1

[4] = biological target: Fuc(a1-2)Gal(b1-3)GalNAc(b1-4)[Neu5Ac(a2-3)]Gal(b1-4)Glc
Outline: as §1

[5] = biological target: Fuc(a1-2)Gal(b1-3)[Fuc(a1-4)]GlcNAc
Outline: as §1

Fuc(a1-2)Gal(b1-4)Glc = biological target: Fuc(a1-2)Gal(b1-4)Glc
Outline: as §1

Fuc(a1-2)Gal(b1-4)GlcNAc = biological target: Fuc(a1-2)Gal(b1-4)GlcNAc
Outline: as §1

[6] = biological target: Fuc(a1-2)Gal(b1-4)GlcNAc(b1-3)Gal(b1-4)GlcNAc
Outline: as §1

[7] = biological target: Fuc(a1-2)Gal(b1-4)GlcNAc(b1-3)Gal(b1-4)GlcNAc(b1-3)Gal(b1-4)GlcNAc
Outline: as §1

[8] = biological target: Fuc(a1-2)Gal(b1-4)[Fuc(a1-3)]GalNAc(b1-3)Gal(b1-4)[Fuc(a1-3)]GlcNAc
Outline: as §1

[9] = biological target: Fuc(a1-2)Gal(b1-4)[Fuc(a1-3)]GalNAc(b1-3)Gal(b1-4)[Fuc(a1-3)]GlcNAc(b1-3)Gal(b1-4)[Fuc(a1-3)]GalNAc
Outline: as §1

[10] = biological target: Fuc(a1-2)Gal(b1-4)[Fuc(a1-3)]GlcNAc
Outline: as §1

Fuc(a1-2)GlcNAc = biological target: Fuc(a1-2)GlcNAc
Outline: as §1

Fuc(a1-2)[Gal(a1-3)]Gal = biological target: Fuc(a1-2)[Gal(a1-3)]Gal
Outline: as §1

[11] = biological target: Fuc(a1-2)[Gal(a1-3)]Gal(b1-3)GlcNAc
Outline: as §1

[12] = biological target: Fuc(a1-2)[Gal(a1-3)]Gal(b1-4)Glc
Outline: as §1

[13] = biological target: Fuc(a1-2)[Gal(a1-3)]Gal(b1-4)GlcNAc
Outline: as §1

[14] = biological target: Fuc(a1-2)[Gal(a1-3)]Gal(b1-4)[Fuc(a1-3)]GlcNAc
Outline: as §1

[15] = biological target: Fuc(a1-2)[Gal(a1-4)]Gal(b1-4)GalNAc
Outline: as §1

[16] = biological target: Fuc(a1-2)[GalNAc(a1-3)]Gal
Outline: as §1

[17] = biological target: Fuc(a1-2)[GalNAc(a1-3)]Gal(b1-3)GlcNAc
Outline: as §1

[18] = biological target: Fuc(a1-2)[GalNAc(a1-3)]Gal(b1-4)Glc
Outline: as §1

[19] = biological target: Fuc(a1-2)[GalNAc(a1-3)]Gal(b1-4)GlcNAc
Outline: as §1

[20] = biological target: Fuc(a1-2)[GalNAc(a1-3)]Gal(b1-4)[Fuc(a1-3)]GlcNAc
Outline: as §1

[21] = biological target: Fuc(a1-2)[GalNAc(a1-4)]Gal(b1-4)GlcNAc
Outline: as §1

Fuc(a1-3)GlcNAc = biological target: Fuc(a1-3)GlcNAc
Outline: as §1

[22] = biological target: Fuc(a1-3)[Gal(b1-4)]GlcNAc
Outline: as §1

[23] = biological target: Fuc(a1-3)[Gal(b1-4)]GlcNAc(b1-4)Gal(b1-4)[Fuc(a1-3)]GlcNAc
Outline: as §1

[24] = biological target: Fuc(a1-3)[Gal(b1-4)]GlcNAc(b1-4)Gal(b1-4)[Fuc(a1-3)]GlcNAc(b1-4)Gal(b1-4)[Fuc(a1-3)]GlcNAc
Outline: as §1

[25] = biological target: Fuc(a1-3)[Gal3S(b1-4)]GlcNAc
Outline: as §1

[26] = biological target: Fuc(a1-3)[GalNAc(b1-4)]Gal(b1-4)GlcNAc
Outline: as §1

Fuc(a1-4)GlcNAc = biological target: Fuc(a1-4)GlcNAc
Outline: as §1

Fuc(b1-3)GlcNAc = biological target: Fuc(b1-3)GlcNAc
Outline: as §1

Gal(a1-2)Gal = biological target: Gal(a1-2)Gal
Outline: as §1

Gal(a1-3)Gal = biological target: Gal(a1-3)Gal
Outline: as §1

Gal(a1-3)Gal(b1-3)Glc = biological target: Gal(a1-3)Gal(b1-3)Glc
Outline: as §1

Gal(a1-3)Gal(b1-3)GlcNAc = biological target: Gal(a1-3)Gal(b1-3)GlcNAc
Outline: as §1

Gal(a1-3)Gal(b1-4)GlcNAc = biological target: Gal(a1-3)Gal(b1-4)GlcNAc
Outline: as §1

[27] = biological target: Gal(a1-3)Gal(b1-4)[Fuc(a1-3)]GalNAc
Outline: as §1

Gal(a1-3)GlcNAc = biological target: Gal(a1-3)GlcNAc
Outline: as §1

[28] = biological target: Gal(a1-3)[Gal(a1-4)]Gal(b1-4)GlcNAc
Outline: as §1

Gal(a1-4)Gal(b1-4)Gal = biological target: Gal(a1-4)Gal(b1-4)Gal
Outline: as §1

Gal(a1-4)Gal(b1-4)GalNAc = biological target: Gal(a1-4)Gal(b1-4)GalNAc
Outline: as §1

B1: Siglec 6 (Homo sapiens), O43699 (protein)
chain: MLPLLLPLLWAGALAQERRFQLEGPESLTVQEGLCVLVPCRLPTTLPASYYGYGYWFLEGADVPVATNDPDEEVQEETRGRFHLLWDPRRKNCSLSIRDARRRDNAAYFFRLKSKWMKYGYTSSKLSVRVMALTHRPNISIPGTLESGHPSNLTCSVPWVCEQGTPPIFSWMSAAPTSLGPRTTQSSVLTITPRPQDHSTNLTCQVTFPGAGVTMERTIQLNVSYAPQKVAISIFQGNSAAFKILQNTSSLPVLEGQALRLLCDADGNPPAHLSWFQGFPALNATPISNTGVLELPQVGSAEEGDFTCRAQHPLGSLQISLSLFVHWKPEGRAGGVLGAVWGASITTLVFLCVCFIFRVKTRRKKAAQPVQNTDDVNPVMVSGSRGHQHQFQTGIVSDHPAEAGPISEDEQELHYAVLHFHKVQPQEPKVTDTEYSEIKIHK
glycan array binding signal (z-score) (Fuc(a1-2)Gal): -0.241
glycan array binding signal (z-score) (Fuc(a1-2)Gal(b1-3)GalNAc): -0.218
glycan array binding signal (z-score) [1]: 0.711
glycan array binding signal (z-score) [2]: -0.228
glycan array binding signal (z-score) [3]: 0.654
glycan array binding signal (z-score) [4]: 0.11
glycan array binding signal (z-score) [5]: -0.371
glycan array binding signal (z-score) (Fuc(a1-2)Gal(b1-4)Glc): -0.333
glycan array binding signal (z-score) (Fuc(a1-2)Gal(b1-4)GlcNAc): -0.214
glycan array binding signal (z-score) [6]: -0.367
glycan array binding signal (z-score) [7]: 0.134
glycan array binding signal (z-score) [8]: -0.31
glycan array binding signal (z-score) [9]: -0.355
glycan array binding signal (z-score) [10]: -0.259
glycan array binding signal (z-score) (Fuc(a1-2)GlcNAc): 0.45
glycan array binding signal (z-score) (Fuc(a1-2)[Gal(a1-3)]Gal): -0.255
glycan array binding signal (z-score) [11]: 0.089
glycan array binding signal (z-score) [12]: -0.241
glycan array binding signal (z-score) [13]: -0.056
glycan array binding signal (z-score) [14]: 1.69
glycan array binding signal (z-score) [15]: 1.21
glycan array binding signal (z-score) [16]: -0.197
glycan array binding signal (z-score) [17]: -0.263
glycan array binding signal (z-score) [18]: -0.447
glycan array binding signal (z-score) [19]: -0.109
glycan array binding signal (z-score) [20]: 0.569
glycan array binding signal (z-score) [21]: -0.217
glycan array binding signal (z-score) (Fuc(a1-3)GlcNAc): -0.129
glycan array binding signal (z-score) [22]: -0.51
glycan array binding signal (z-score) [23]: -0.268
glycan array binding signal (z-score) [24]: -0.444
glycan array binding signal (z-score) [25]: -0.189
glycan array binding signal (z-score) [26]: -0.009
glycan array binding signal (z-score) (Fuc(a1-4)GlcNAc): -0.539
glycan array binding signal (z-score) (Fuc(b1-3)GlcNAc): -0.16
glycan array binding signal (z-score) (Gal(a1-2)Gal): -0.328
glycan array binding signal (z-score) (Gal(a1-3)Gal): -0.267
glycan array binding signal (z-score) (Gal(a1-3)Gal(b1-3)Glc): -0.13
glycan array binding signal (z-score) (Gal(a1-3)Gal(b1-3)GlcNAc): -0.366
glycan array binding signal (z-score) (Gal(a1-3)Gal(b1-4)GlcNAc): -0.293
glycan array binding signal (z-score) [27]: -0.431
glycan array binding signal (z-score) (Gal(a1-3)GlcNAc): -0.47
glycan array binding signal (z-score) [28]: -0.5
glycan array binding signal (z-score) (Gal(a1-4)Gal(b1-4)Gal): -0.157
glycan array binding signal (z-score) (Gal(a1-4)Gal(b1-4)GalNAc): -0.358
